The source of these data is paper PMC4336329 (PLoS ONE, 2015).

In all, about 310,000 compounds went through this assay and about 2,200 (0.71%) showed an effect of 50% or more. The effect is printed as a negative number. This is one part of the list.

human ether-à-go-go-related gene (hERG) potassium channel, sequence (Q12809 whole entry, looked up): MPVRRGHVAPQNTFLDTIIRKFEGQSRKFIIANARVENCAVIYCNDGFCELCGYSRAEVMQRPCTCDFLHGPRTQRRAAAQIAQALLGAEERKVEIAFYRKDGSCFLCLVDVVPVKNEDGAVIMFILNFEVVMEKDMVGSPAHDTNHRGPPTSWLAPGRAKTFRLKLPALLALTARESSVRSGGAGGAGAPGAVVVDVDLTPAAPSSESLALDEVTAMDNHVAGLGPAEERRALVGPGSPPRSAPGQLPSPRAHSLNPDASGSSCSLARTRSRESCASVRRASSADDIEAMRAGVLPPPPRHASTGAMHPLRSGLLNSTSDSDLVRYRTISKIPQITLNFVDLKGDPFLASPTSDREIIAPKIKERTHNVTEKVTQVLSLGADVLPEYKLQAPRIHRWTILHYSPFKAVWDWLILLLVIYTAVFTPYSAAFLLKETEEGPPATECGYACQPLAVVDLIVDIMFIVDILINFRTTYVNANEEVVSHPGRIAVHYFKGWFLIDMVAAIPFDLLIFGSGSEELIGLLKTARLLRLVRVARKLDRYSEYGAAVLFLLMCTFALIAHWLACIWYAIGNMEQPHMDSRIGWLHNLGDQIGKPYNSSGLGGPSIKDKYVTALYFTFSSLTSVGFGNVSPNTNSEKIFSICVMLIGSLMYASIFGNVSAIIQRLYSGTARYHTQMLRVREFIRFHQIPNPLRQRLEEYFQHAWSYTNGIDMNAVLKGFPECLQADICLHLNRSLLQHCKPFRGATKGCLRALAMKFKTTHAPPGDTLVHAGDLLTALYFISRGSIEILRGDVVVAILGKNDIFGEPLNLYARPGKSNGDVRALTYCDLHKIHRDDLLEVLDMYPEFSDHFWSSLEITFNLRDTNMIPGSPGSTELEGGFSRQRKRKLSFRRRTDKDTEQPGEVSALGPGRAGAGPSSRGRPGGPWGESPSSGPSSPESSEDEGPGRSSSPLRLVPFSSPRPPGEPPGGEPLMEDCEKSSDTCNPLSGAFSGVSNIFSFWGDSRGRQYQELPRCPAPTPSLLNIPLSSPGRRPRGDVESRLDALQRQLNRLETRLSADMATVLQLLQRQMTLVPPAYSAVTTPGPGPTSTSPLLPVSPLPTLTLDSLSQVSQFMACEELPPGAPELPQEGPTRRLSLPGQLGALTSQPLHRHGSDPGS

This assay addresses human ether-à-go-go-related gene (hERG) potassium channel (human, UniProt Q12809). The assay can be described thus: primary screen, population patch clamp on CHO cells stably expressing hERG.
`O=C(CSc1nnc(Nc2ccccc2)s1)NCCN1C(=O)CSC1=O`: the “hERG current change (%, negative = inhibition) at 1uM” value was 27.1%.
Then `Cc1ccccc1CC(=O)N1CCCc2ccccc21`, with 15.1%.
For `O=C(Nc1ccccc1N1CCCC1)c1cccc(-c2cc3ccccc3oc2=O)c1`, the “hERG current change (%, negative = inhibition) at 1uM” value is given as 9.48%.
Then `Cl.Cn1ccc2cc3c(cc21)CCN3C(=O)Nc1cccnc1.O`, with -3.48%; and `Cc1ccc2nc(/C=C/c3cccc(F)c3)ccc2c1`, with 12%; and `CCn1nc(C(=O)OCc2cccc(S(=O)(=O)N(C)C)c2)c2ccccc2c1=O`, with 1.92%.
Then `Cn1c(=O)n(C)c2cc(C(N)=O)ccc21`, with -0.522%.
On to `CNC(=O)c1[nH]cnc1C(=O)N[C@@H](CC(C)C)C(=O)OCc1ccccc1`, for which the “hERG current change (%, negative = inhibition) at 1uM” value is reported as -51.8%.
Then `CC(/C=N/NC(=O)c1cccs1)=C\c1ccccc1`, with 10.6%.
For the compound `COc1ccc(N(C)S(=O)(=O)c2cccc(C(=O)NCc3ccc(C)cc3)c2)cc1`, the “hERG current change (%, negative = inhibition) at 1uM” value came out at 7.51%.
Then `CCOC(=O)/C(C#N)=N/Nc1ccc(S(=O)(=O)Nc2cc(OC)nc(OC)n2)cc1`, with -1.6%; and `CN(CC1CCOCC1)C(=O)c1ccc2nc(Cc3cccc(Cl)c3)oc2c1`, with 3.09%; and `COC(=O)c1ccc(CN2CCN(Cc3ccc(C(=O)OC)o3)CC2)o1`, with 19.1%.
Turning to `CCCNC(=O)c1ccc2c(c1)S(=O)(=O)c1ccccc1C2=O`, the “hERG current change (%, negative = inhibition) at 1uM” value is recorded as -0.0772%.
Then `COCCCNC(=O)CCc1c(C)c2cc3c(C)coc3cc2oc1=O`, with 8.9%; and `COc1ccc(C)cc1N(CC(=O)NCCN1CCOCC1)S(=O)(=O)c1ccccc1`, with 3.25%.
`C=CCNC(=O)O/N=C/c1csc([N+](=O)[O-])c1`: the “hERG current change (%, negative = inhibition) at 1uM” value was 18.3%.
For `Cn1c(-c2ccc(Br)o2)nc2cc(Br)ccc21`, the “hERG current change (%, negative = inhibition) at 1uM” value stood at 31.1%.
Then `Cc1ccc2c(c1)N(CCC(=O)NC(C)C)C(=O)CO2`, with 12.4%; and `CCOC(=O)/C(C#N)=N\Nc1cc(Cl)ccc1OC`, with 3.14%; and `Cc1ccc(Cn2c(C3CCCN3c3nc(C)cs3)nc3cc(C(F)(F)F)ccc32)cc1` (stereo not shown), with 8.04%.
Then `CCCCOc1ccc(CN(CCO)CCO)cc1[N+](=O)[O-].Cl`, with 12%; and `COc1ccccc1CNC(=O)[C@H](C)NC(=O)C1CCN(C(=O)[C@@H](N)CCSC)CC1`, with 11.1%.
Then `O=C(CC1C(=O)NCCN1Cc1cccc(Oc2ccccc2)c1)NCCc1cscn1` (stereo not shown), with 9.64%.
With `O=C(CCn1cnnn1)Nc1ccc(F)cc1`, the “hERG current change (%, negative = inhibition) at 1uM” value is listed as 0.52%.
Then `Oc1ccc(Cl)cc1C1=NNC(c2ccc(Cl)cc2)C1` (stereo not shown), with 8.72%; and `Cn1cc(C(=O)OCC(=O)NC2(C#N)CCCC2)c2ccccc21`, with -1.68%.
Consider `COc1ccc(S(=O)(=O)N(C)C)cc1NCC(=O)Nc1ccc(Br)c(C)c1`, for which the “hERG current change (%, negative = inhibition) at 1uM” value is listed as -2.91%.
Then `CCOC(=O)COc1ccc2c(=O)c(-c3ccccc3)coc2c1`, with 18%.
Then `COCC1CCN(C(=O)CCc2nnc(CCCCc3ccccc3)o2)CC1`, with 9.68%; and `COCC(C)n1c(C)cc(C(=O)COC(=O)c2ccc3ncsc3c2)c1C` (stereo not shown), with -2.07%; and `CCOc1ncccc1C(=O)OCC(=O)N1CCc2ccccc21`, with 4.2%.
Then `C=CCNC(=O)c1ccc(CSc2nc3ccccc3s2)cc1`, with 15%.
`Cc1ccc(C(C)C)c(OCC(=O)OCC(=O)c2c(N)n(C)c(=O)n(C)c2=O)c1`: the “hERG current change (%, negative = inhibition) at 1uM” value is recorded as 13.2%.
Then `Cc1cc(NC(=O)CC(C)C)c(=O)n(Cc2ccccc2F)c1`, with 10.7%; and `O=C(N/N=C/c1cc([N+](=O)[O-])cc([N+](=O)[O-])c1O)C(O)(c1ccccc1)c1ccccc1`, with 0.978%.
With `O=S1(=O)CC(O)C(N2CCCCC2)C1` (stereo not shown), the “hERG current change (%, negative = inhibition) at 1uM” value is given as 0.989%.
Then `CC(C)(C)C(=O)c1cn(CC(=O)NCc2ccc3c(c2)OCO3)c2ccccc12`, with 4.7%.
Then `COc1cccc(NS(=O)(=O)c2ccc3c(c2)CCN3C(C)=O)c1`, with 1.94%; and `CCOc1ccc(N2C(=O)CC(N3CCN(c4ccc(Cl)cc4)CC3)C2=O)cc1` (stereo not shown), with 15.7%.
Then `CC1=C(C(=O)Nc2cc(C(=O)NCCCOC(C)C)ccc2C)SCCO1`, with 11.8%; and `CCOc1cc(C(=O)NCC(C)CN(C)C)cc(OCC)c1OCC` (stereo not shown), with 10.2%.
Consider `CCOC(=O)C1CCCN(C(=O)C2CCN(S(=O)(=O)c3cccs3)CC2)C1` (stereo not shown), for which the “hERG current change (%, negative = inhibition) at 1uM” value is on record as -11.3%.
Then `COc1cccc(C(=O)NCCCNC(=O)c2cccnc2)c1`, with 6.09%; and `Brc1ccc(CSc2nnc(-c3ccccn3)n2Cc2ccco2)cc1`, with 2.31%.
Then `Cc1cccc(C(=O)NNC(=O)c2ccccc2Br)c1`, with 10.6%.
Regarding `CCOc1ccc(C(=O)NCC(=O)Nc2cc(C)ccn2)cc1OCC`, the “hERG current change (%, negative = inhibition) at 1uM” value is listed as 9.69%.
As for `Cc1cc(/C=C2\C(=O)NC(=O)N(c3cccc(F)c3)C2=O)c(C)n1-c1cc(C(=O)O)cc(C(=O)O)c1`, the “hERG current change (%, negative = inhibition) at 1uM” value was determined as 18.1%.
Then `Cc1nnc(NC(=O)c2cc3n(n2)C(C(F)(F)F)CC(C2CC2)N3)s1` (stereo not shown), with 9.46%; and `CCC(=O)Nc1ccc(S(=O)(=O)N2CCc3ccccc32)cc1`, with 1.9%.
Then `CSc1ncccc1C(=O)Nc1ccncc1`, with 15.5%.
Then `CN1C(=O)c2ccccc2C(O)c2ccccc21` (stereo not shown), with 6.34%.
Take `CC1(c2ccc(Cl)cc2)NC(=O)N(CC(=O)NCc2cccs2)C1=O` (stereo not shown): the “hERG current change (%, negative = inhibition) at 1uM” value was 7.48%.
Then `CCCn1cnc2sc(CC)cc2c1=O`, with 16.1%; and `CCOc1ccc2nc(NC(=O)CSc3ccccc3)sc2c1`, with 4.91%; and `CCn1c(CC(=O)Nc2ccc(C)cc2)nnc1SCC(=O)Nc1nc(C)cs1`, with 18%.
`CCOc1ccccc1/C=N/Nc1cc(C)nc2ccc(C)cc12`: the “hERG current change (%, negative = inhibition) at 1uM” value is reported as 15.7%.
Consider `CCOCCCNC(=O)C(C)NS(=O)(=O)c1ccc(C)cc1` (stereo not shown), for which the “hERG current change (%, negative = inhibition) at 1uM” value is 7.82%.
For the compound `Cc1cc(C)cc(OCC(=O)NNC(=O)CCC(=O)NCc2ccccc2)c1`, the “hERG current change (%, negative = inhibition) at 1uM” value is on record as 14.2%.
Then `NC(=S)Nc1cc(Cl)cc(Cl)c1`, with 13.3%.
Then `Cc1nn(Cc2ccccc2)c(C)c1C(=O)N1CCN(CC(=O)Nc2ccccc2Cl)CC1`, with -13.4%; and `CCN(CC)CCn1c(=O)n(-c2ccc(Cl)cc2)c(=O)c2c3c(sc21)CN(C)CC3`, with 1.4%.
Then `COc1ccc(CC(=O)NC(C)c2nnc(SCC(=O)c3ccc(OC)cc3)n2C)cc1` (stereo not shown), with 4.87%.
In the case of `O=C(c1ccc(F)cc1Cl)N1CCC2(CC1)OCCO2`, the “hERG current change (%, negative = inhibition) at 1uM” value was 18%.
Then `O=C(NC1CCCC1)c1ccc(COCC(F)(F)F)o1`, with 13.7%; and `Cc1ccc(C(=O)NC(=S)Nc2ccc(-c3ccc(CO)o3)cc2)cc1`, with 15.6%.
As to `COCCCN1C(=O)C(O)=C(C(=O)c2ccc(C)o2)C1c1cccc(Br)c1` (stereo not shown), the “hERG current change (%, negative = inhibition) at 1uM” value stood at 7.75%.
Then `CN1C(=O)/C(=C2/C=CC=CN2C)OC1=S`, with 1.15%; and `COCC1CCCCN1C(=O)c1ccc(OC)c(OC2CCN(C(C)C)CC2)c1` (stereo not shown), with 15%.
Then `Cl.Nc1ccc2c(c1)OC1(CCCC1)O2`, with 30.3%; and `O=C(O)CSc1nc2sc3c(c2c(=O)n1Cc1ccccc1)CCCCC3`, with 14.4%.
Then `Cc1cc(NC(=O)/C=C/c2ccccc2Cl)no1`, with 14%; and `CCCC(C)NC(=O)C1CC(=O)N(CCc2ccc(F)cc2)C1` (stereo not shown), with 6.95%; and `N#Cc1ccsc1NC(=O)C1CC(=O)N(Cc2ccccc2)C1` (stereo not shown), with 0.752%.
Consider `CCN(CC)CCn1c2c(c(SCC(=O)Nc3ccc(C(C)C)cc3)nc1=O)CCCC2`, for which the “hERG current change (%, negative = inhibition) at 1uM” value is given as -16.5%.
Take `CC(=N\Nc1ccccc1)/C(=N/O)C(=O)Nc1ccccc1`: the “hERG current change (%, negative = inhibition) at 1uM” value was found to be 7.01%.
In the case of `O=C1c2cnc3nc(SCc4cccc(Cl)c4)nn3c2CC2c3ccccc3CCN12` (stereo not shown), the “hERG current change (%, negative = inhibition) at 1uM” value is reported as 8.92%.
Then `Cc1ccnc(NS(=O)(=O)c2cccs2)c1`, with 12.9%.
Then `CC(=O)c1ccccc1OCCOCCOc1ccccc1C(C)=O`, with -0.791%.
Then `O=C(O)CSc1nc2ccccc2s1`, with 8.45%; and `Cc1cc(C(=O)O)ccc1-n1c(C)cc(C=C2C(=O)c3ccccc3C2=O)c1C`, with 7.4%; and `CC1CN(C(=O)NCc2ccccc2)c2cc(Cl)ccc2O1` (stereo not shown), with 13.9%.
Consider `Clc1ccccc1/C=C/c1ccnc2ccccc12`, for which the “hERG current change (%, negative = inhibition) at 1uM” value turned out to be 5.08%.
In the case of `CC(c1ccccc1)n1cncc1C(=O)O` (stereo not shown), the “hERG current change (%, negative = inhibition) at 1uM” value is 14.8%.
Then `COC(=O)Oc1ccc(/C=N/NC(=O)CSCc2ccc(Cl)cc2)cc1OC`, with -13%; and `COc1ccc(C(=O)NCc2nnc(SCC(=O)NO)n2Cc2ccccc2)cc1`, with -9.73%; and `O=S(=O)(Nc1ccc(O)c(Sc2nc3ccccc3s2)c1)c1ccc(F)cc1`, with 6.04%.
Then `O=C(NCC(O)c1ccc([N+](=O)[O-])cc1)c1cccc(S(=O)(=O)N2CCCC2)c1` (stereo not shown), with -18.6%; and `CCN1CCN(c2ncnc3sc4c(c23)CCC(C)C4)CC1` (stereo not shown), with 7.63%; and `CC(/C=C/c1ccccc1)=N\NC(=O)c1ccc2c(c1)OCCO2`, with 5.5%.
In the case of `CCOC(=O)CCNC(=O)N1CCCC(N(C)CCc2ccc(OC)c(OC)c2)C1` (stereo not shown), the “hERG current change (%, negative = inhibition) at 1uM” value is listed as 14.5%.
